# Reference: PubChem BioAssay AID485297 (National Center for Advancing Translational Sciences (NCATS), 2010)
# The campaign covered roughly 320,000 compounds. About 9,100 (2.8%) were called active. Inconclusive means that the source gave no clear call. Such entries were picked first, then a sample of the others. Calls follow the shape of the dose curve; as a rule, active = well fitted activation curve with a large enough effect; inconclusive = small, poorly fitted or top-dose-only effect; inactive = no such curve, though single readings can be large or run the other way. No potency is given beside an inconclusive call; the fits are too rough.
# Experiment: qHTS Assay for Rab9 Promoter Activators; also: nearly all actives have a fitted effect of over 60% in size
# Settings: Huh7 Rab9 promoter-luciferase reporter, luminescence, 24 h; series mostly up to 9.22 µM
# How it was run: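 Measured in stably transfected Huh7 cells bearing a Rab9 promoter–luciferase construct: 24 h compound treatment at 37 °C, followed by luminescence detection.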
# Potency is read from the fitted curve at half-maximal effect; tags tell the direction and shape of the fitted curve.
row,Structure (SMILES),Potency
1,COc1ccc(C(=O)CN2Cc3ccccc3C2=N)cc1,active: 2.51 µM
2,O=C(OCC(=O)c1ccc[nH]1)c1ccc2ccccc2n1,inactive
3,O=C(O)c1ccccc1CSc1nc2ccccc2o1,"inconclusive [activator, partial curve]"
4,O=C(Nc1ncc([N+](=O)[O-])s1)c1ccccc1Br,"inconclusive [activator, partial curve]"
5,COc1ccc(-c2cc(C(=O)n3cnc4ccccc43)c3ccccc3n2)cc1,"inconclusive [activator, single point]"
6,COP(=O)(OC)C(Nc1ccc(C)cc1)c1ccc([N+](=O)[O-])cc1 (centres undefined),"inconclusive [activator, partial curve]"
7,O=C(c1cccs1)N(CCN1CCCCC1)CC1CCCN(C2CCCC2)C1 (centres undefined),"inconclusive [activator, single point]"
8,Cc1csc(NC(=O)c2ccc3c(c2)OCO3)n1,inactive
9,COc1ccccc1CCC(=O)Nc1nc2ccccc2[nH]1,"inconclusive [activator, single point]"
10,Cc1nn2cc(-c3ccccc3)nc2[nH]c1=O,"inconclusive [activator, partial curve]"
11,C=CCc1cccc([C@@H]2[C@@H](C)CC[C@H]3C(=O)N4[C@@H](c5cc(OC)c(OC)c(OC)c5)c5[nH]c6ccccc6c5C[C@H]4C(=O)N23)c1,inactive
12,Nc1nc(-c2sc3nc4c(cc3c2N)CCCC4)nc(N2CCOCC2)n1,"inconclusive [activator, partial curve]"
13,Cc1ccc(OCC(=O)Nc2cccc(-c3nnc(-c4ccccc4)o3)c2)cc1,"inconclusive [activator, single point]"
14,Cc1cccn2cc(COc3cccc([N+](=O)[O-])c3)nc12,"inconclusive [activator, single point]"
15,COc1ccc(C(=O)Nc2cccc(C(=O)N3CCCC3)c2)cc1,inactive
16,O=C(Nc1ccc(F)c([N+](=O)[O-])c1)c1ccc2c(c1)OCCO2,"inconclusive [activator, single point]"
17,CC(Oc1ccc(Br)cc1)C(=O)NC1CCN(Cc2ccccc2)CC1 (centres undefined),inactive
18,COC(=O)c1ccccc1NC(=O)/C=C/c1ccco1,inactive
19,CCn1c(COc2cccc(C)c2)nnc1SCC(=O)NC1CCCC1,inactive
20,Cc1cc(C(=O)COc2cccc([N+](=O)[O-])c2)c(C)n1C1CC1,active: 3.16 µM
21,COC(=O)c1ccsc1NC(=O)CCc1ccccc1,"inconclusive [activator, single point]"
22,Cc1ccc(S(=O)(=O)N2CCCC2)cc1C(=O)NCCOc1ccccc1,inactive
23,O=C(OCC(=O)N1CCOCC1)c1ccccc1Br,"inconclusive [activator, single point]"
24,CC(C)COP(=O)(OCC(C)C)C(Nc1ccccc1)c1ccccc1 (centres undefined),inactive
25,CCN1CCN(Cc2c(O)c(Cl)cc3c(C)cc(=O)oc23)CC1,inactive

row,Structure (SMILES),Potency
1,Cc1noc(C)c1CSCC(=O)Nc1ccccc1N1CCCCC1,inactive
2,Cc1nc(SCC(=O)NC2CCS(=O)(=O)C2)c(C#N)c(C)c1C (centres undefined),inactive
3,Cc1sc2ncnc(N3CCC(C(=O)Nc4sc5c(c4C(N)=O)CCC(C)C5)CC3)c2c1C (centres undefined),inactive
4,Nc1c(-c2ccc(Cl)cc2)cnn1-c1cccc(C(F)(F)F)c1,"inconclusive [activator, partial curve]"
5,CCc1ccc(-c2ccc(SCC(=O)NCC3CCCO3)nn2)cc1 (centres undefined),"inconclusive [activator, single point]"
6,Cc1nc(Nc2ccccc2)sc1C(=O)Nc1ccccc1,"inconclusive [activator, single point]"
7,CCOC(=O)NC(=O)CSc1nc(-c2ccc(C)c(C)c2)cn1-c1ccccc1,active: 2.24 µM
8,O=C(Nc1nc2cc3c(cc2s1)OCCO3)c1cccc(N2C(=O)CCC2=O)c1,"inconclusive [activator, partial curve]"
9,COc1ccc(C2=CC(=O)C[C@H](c3ccc(Cl)cc3)C2)cn1,inactive
10,CCN1CCN(CC(=O)N2CCCC(C(=O)c3ccc(Oc4ccccc4)cc3)C2)CC1 (centres undefined),"inconclusive [activator, single point]"
11,CC(C)(C)c1cc(NC(=O)c2cccc([N+](=O)[O-])c2)no1,active: 1.41 µM
12,CCCn1nc(C(=O)NNC(=O)Cc2ccc(S(=O)(=O)N3CCOCC3)s2)c2ccccc2c1=O,inactive
13,CCOc1ccc(-c2ccc(SCC(=O)Nc3nnc(C)s3)nn2)cc1,"inconclusive [activator, full curve]"
14,Cc1ccccc1OCC(=O)OCC(=O)Nc1ccc2c(c1)OCCO2,inactive
15,CC(=O)c1ccc(OC(C)c2nc3ccccc3s2)cc1 (centres undefined),"inconclusive [activator, partial curve]"
16,Cc1cc(NC(=O)CSc2nnc(COc3cccc(C)c3C)n2Cc2ccco2)no1,"inconclusive [activator, single point]"
17,Nc1nc(SCC(=O)Nc2ccc(OCc3ccccc3)cc2)n[nH]1,"inconclusive [activator, single point]"
18,COc1ccc(C(=O)OCn2nnc3ccccc3c2=O)cc1OC,inactive
19,O=C(CCN1CCN(c2ccccc2)CC1)Nc1ccc(OCc2ccccc2)cc1,"inconclusive [activator, single point]"
20,Clc1ncccc1-c1nnn(-c2ccccc2)n1,active: 1.41 µM
21,O=C(CCC(=O)N1CCN(S(=O)(=O)c2ccc3ccccc3c2)CC1)NCC(F)(F)F,inactive
22,O=C1Cc2ccccc2C(=O)N1CCc1ccccc1,"inconclusive [activator, partial curve]"
23,Cc1nn(-c2ccc(F)cc2)c(Cl)c1C(=O)OC(C)C(=O)N(C)C1CCCCC1 (centres undefined),inactive
24,CC(C)CC(=O)NC(=S)Nc1ccc(Cl)cn1,"inconclusive [activator, partial curve]"
